In PMC6919601, “Identification of Plasmodium dipeptidyl aminopeptidase allosteric inhibitors by high throughput screening” (PLoS ONE, 2019):
Where “and” joins values, the source holds several entries; their conditions need not be identical. Equal values may be shown once. Screen size: about 110,000 compounds; about 230 (0.21%) showed an effect of 50% or more. This is one part of the list.

Target: DPAP1 (Plasmodium falciparum, UniProt Q8IIJ9)
Assay: primary screen, percent inhibition; read by cleavage of a fluorogenic dipeptide substrate; higher = more effect of the substance
Set-up: species or system P. falciparum D10 trophozoite lysates; single well
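Also: 30 min substrate incubation versus DMSO and 10 µM JCP410 controls.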

Sequence of DPAP1 (Q8IIJ9 whole entry, looked up): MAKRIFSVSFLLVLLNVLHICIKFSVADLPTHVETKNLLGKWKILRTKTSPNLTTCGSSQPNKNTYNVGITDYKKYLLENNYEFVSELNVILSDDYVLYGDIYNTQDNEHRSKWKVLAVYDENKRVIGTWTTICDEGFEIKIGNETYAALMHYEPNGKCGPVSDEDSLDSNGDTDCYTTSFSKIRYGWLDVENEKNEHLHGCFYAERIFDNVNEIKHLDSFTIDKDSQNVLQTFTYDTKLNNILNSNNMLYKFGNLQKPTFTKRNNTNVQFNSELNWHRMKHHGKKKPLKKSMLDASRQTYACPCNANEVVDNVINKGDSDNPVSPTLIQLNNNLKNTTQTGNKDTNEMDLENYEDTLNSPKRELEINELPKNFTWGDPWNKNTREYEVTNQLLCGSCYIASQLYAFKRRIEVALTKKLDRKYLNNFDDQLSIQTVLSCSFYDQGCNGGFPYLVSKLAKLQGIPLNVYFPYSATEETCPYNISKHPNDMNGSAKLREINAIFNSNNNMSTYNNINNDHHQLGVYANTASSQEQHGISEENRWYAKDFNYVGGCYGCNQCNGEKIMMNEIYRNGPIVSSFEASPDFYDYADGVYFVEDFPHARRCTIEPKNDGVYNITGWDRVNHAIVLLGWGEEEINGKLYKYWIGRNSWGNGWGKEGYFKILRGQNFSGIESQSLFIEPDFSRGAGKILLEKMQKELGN

| SMILES | % Inhibition @ 10 uM |
| --- | --- |
| COc1ccc(C(=O)NCC2(C)CC(NC(=O)c3ccc(OC)cc3)CC(C)(C)C2)cc1 (stereo not shown) | 0.389% |
| N#CC1=C(N)Oc2[nH]nc(-c3ccccc3)c2C1c1cccnc1 (stereo not shown) | 7.93% |
| O=C(CN(c1ccccc1Cl)S(=O)(=O)c1ccccc1)N1CCc2ccccc2C1 | -6.77% |
| O=C(O)CCNC(=O)COc1ccc2c3c(c(=O)oc2c1)CCCC3 | 3.06% |
| CC(=O)Nc1ccc(CN2CCN(c3ccc(Cl)cc3)CC2)cc1 | 4.73% |
| Cc1ccc(S(=O)(=O)NCCc2nnc3ccc(SCc4c(F)cccc4Cl)nn23)cc1 | 0.823% |
| COc1nc(Cl)cc(C)c1C(=O)NCc1ccccc1 | 4.81% |
| O=C(O)CCCn1cc(NC(=O)Cc2ccccc2)cn1 | -2.05% |
| CCOc1ccc(N2C(=O)/C(=C/c3ccc(C)cc3)C(=O)NC2=S)cc1 | -3.09% |
| COC(=O)c1c(NC(=O)/C=C/c2ccc(OC)c(OC)c2)sc(C)c1C | -0.148% |
| COc1cc(C=C2C(=O)OC3(CCCCC3)OC2=O)ccc1OCc1cccc(C(=O)O)c1 | 18.3% |
| Cc1oc(-c2ccccc2Cl)nc1CSCC(=O)NC1CCCC(C)C1C (stereo not shown) | 3.99% |
| Cc1cccc(C)c1N(CC(=O)NCCSc1ccccn1)S(C)(=O)=O | 4.75% |
| CC1=NCCN1S(=O)(=O)c1ccc(Cl)cc1 | -1.96% |
| COc1ccc(C(=O)/C=C/c2coc3ccc(C)cc3c2=O)cc1 | 4.54% |
| COc1ccc(-c2nn(CCC(=O)O)cc2/C=C2\SC(N)=NC2=O)cc1OC | 0.778% |
| COc1ccc(-c2cc(-c3cccs3)nc(SCC(N)=O)c2C#N)cc1OC | 1.02% |
| COc1cc2c(cc1OC)C(c1cccnc1)N(C)CC2 (stereo not shown) | 4.55% |
| O=C1N=CC(N2C(=O)c3ccc([N+](=O)[O-])cc3C2=O)C(=O)N1 (stereo not shown) | -12.6% |
| CCCNC(=O)C1CCCN(c2nnc(C)c3c(C)n(-c4ccccc4)nc23)C1 (stereo not shown) | -4.74% |
| Cc1ccc2c(CNC3CCCCCCC3)c(C(=O)O)n(C)c2c1 | -4.46% |
| N#Cc1c(NC(=O)Cn2nc(C(F)F)cc2C(F)F)sc2c1CCCC2 | 3.65% |
| O=S(=O)(Nc1ccc(Br)c2cccnc12)c1cccc2cccnc12 | -3.66% |
| CCCOc1ccc(C(O)CCNC(CC(=O)O)c2ccccc2)cc1 (stereo not shown) | -4.75% |
| Cc1ccc(S(=O)(=O)N2CCCC(C(=O)NC(C)CCc3ccccc3)C2)cc1 (stereo not shown) | -6.56% |

| SMILES | % Inhibition @ 10 uM |
| --- | --- |
| CC(C)N1CN(CCc2ccccc2)c2nc3ccccc3n2C1 | 0.221% |
| O=C(NCc1ccccc1F)c1nc(-c2ccc(Br)o2)no1 | -5.72% |
| COc1ccc(-c2noc(CNC(=O)c3ccc(Br)o3)n2)cc1 | 0.486% |
| COc1ccccc1-c1cc(-c2ccccc2)nc(N2CCCCC2)n1 | -3.93% |
| Cc1ccc(C2c3c(oc4ccccc4c3=O)C(=O)N2c2nncs2)cc1 (stereo not shown) | -5% |
| Cc1nn(CC(=O)N2CCCCC2)c(=O)c2nccn12 | 21.1% |
| CC(C)Oc1ccccc1C1C(C#N)=C(N)Oc2[nH]nc(-c3ccccc3)c21 (stereo not shown) | 2.38% |
| CCN(CC)CCn1c(=O)n(C)c(=O)c2[nH]cnc21 | -4.82% |
| CCOC(=O)c1cc2c(=O)n3ccccc3nc2n(CCOC)/c1=N\C(=O)C1CCCCC1 | -0.363% |
| CC(CNC(=O)CCNS(=O)(=O)c1ccc2nc(O)ccc2c1)c1ccccc1 (stereo not shown) | 2.73% |
| C1CCc2c(c(N3CCOCC3)nc3sc4c(NCCN5CCOCC5)nnnc4c23)C1 | 2.95% |
| Cc1ccc(S(=O)(=O)NC(=O)c2ccccc2O)cc1 | 3.72% |
| CC1(C(=O)O)CC(=O)N=C2C=CC=CN21 (stereo not shown) | 4.26% |
| COC(=O)c1c(OC)cc(C)nc1C | 4.41% |
| Cc1nc2ccc(C(=O)N3CCN(c4ccccc4)CC3)cc2s1 | -5.14% |
| COc1nc(-c2ccc(C)cc2)ccc1-c1noc(C)n1 | 2.1% |
| CC(C)=C1C2C=CC1C1C(=O)N(c3ccccc3C#N)C(=O)C21 (stereo not shown) | 2.38% |
| CC(C(=O)O)N1C(=O)CSC1=O (stereo not shown) | 1.72% |
| CC1(C)CC(=O)C(=Cc2c[nH]c3ccccc23)C(=O)C1 | 0.685% |
| O=C(Nc1cccc(NC(=O)c2ccc3c(c2)OCO3)n1)c1ccc2c(c1)OCO2 | -1.07% |
| CCOc1cc(CN2CCN(c3cccc(Cl)c3)CC2)ccc1O | -3.65% |
| CCOc1ccc(C2(CC(=O)Nc3ccccc3)C(=O)c3ccccc3C2=O)cc1OC | -5.46% |
| C=C(C)Cn1c(C(C)NC(=O)c2ccccc2OC)nc2ccccc21 (stereo not shown) | 4.77% |
| c1nc(N2CCCC2)c2c3c(sc2n1)CCCC3 | -3.92% |
| COc1ccc(N(Cc2ccc(F)cc2)C(=O)c2cccc([N+](=O)[O-])c2)cc1 | -0.0372% |

| SMILES | % Inhibition @ 10 uM |
| --- | --- |
| CC(=O)N1CCN(C2CCN(Cc3ccccc3)CC2)CC1 | 0.472% |
| COc1cccc(C(=O)Nc2cc(Cl)ccc2C)c1 | -1.48% |
| Cc1cc(C)c(NC(=O)Nc2ccc(Cl)cc2)c(C)c1 | -2.28% |
| O=C(CCCN1C(=O)c2ccccc2Sc2ncccc21)N1CCN(C2CCCCC2)CC1 | -2.68% |
| COc1cc(/C=C2\NC(=O)NC2=O)ccc1OCCCOc1ccc(C)cc1C | -7.58% |
| COc1ccc(CN2CCN(C)CC2)c(C)c1C | 4.67% |
| COc1cc(NC(=O)c2ccc(Cl)cc2)c(Cl)cc1NC(=O)c1ccccc1-c1ccccc1 | -2.47% |
| Cc1nn(Cc2cccc(C(=O)NCc3ccc4c(c3)OCO4)c2)c(C)c1Cl | -1.33% |
| C=CCOc1ccc(/C=C2\N=C(c3cccs3)OC2=O)cc1OC | -0.357% |
| CN1CCN(C(=O)/C(=C/c2cccc(F)c2)NC(=O)c2ccccc2Br)CC1 | 1.02% |
| Cc1ccccc1C1C(C#N)=C(N)N(c2nc[nH]n2)C2=C1C(=O)CCC2 (stereo not shown) | -5.63% |
| O=C(CCC1CCCC1)Nc1ccc2c(c1)OCO2 | 0.843% |
| O=C(CN(c1ccc(Cl)c(C(F)(F)F)c1)S(=O)(=O)c1ccccc1)NCc1ccccn1 | 14.7% |
| O=C(NCCCN1CCOCC1)c1cc(-c2cccc(Br)c2)nc2ccccc12 | 3.65% |
| CCOCCCNCc1c(C(=O)O)n(Cc2ccccc2F)c2ccccc12 | 3.54% |
| Cc1c2cnn(CC(=O)N3CCc4ccccc4C3)c(=O)c2c(C)n1Cc1ccccc1 | 4.4% |
| COc1cc(OC)cc(C2=N/C(=C\c3ccc(C(C)C)cc3)C(=O)O2)c1 | 0.26% |
| Cc1nn(C(C)C(=O)NCc2cccnc2)c(=O)c2c1sc1ccccc12 (stereo not shown) | -1.03% |
| CCN(CC)CCN(C)Cc1cccc(Br)c1 | 4.61% |
| Cc1oc2ccc(O)c(CN3CCOCC3)c2c1C(=O)OCCOc1ccccc1 | -2.99% |
| O=C(c1cc(S(=O)(=O)N2CCCCC2)c(Cl)cc1Cl)N1CCCCC1 | -2.92% |
| Cc1cccc(C2C(C#N)=C(N)OC3=C2C(=O)CC(C)(C)C3)c1 (stereo not shown) | -3.13% |
| Cc1ccc(-c2onc(C)c2C)cc1S(=O)(=O)N(Cc1ccccc1)C(C)C | 2.01% |
| CS(=O)(=O)N(CC(=O)N1CCCC1)c1ccc(Cl)c(Cl)c1 | 3.29% |
| CC(C)C[C@H](NC(=O)c1ccc(-c2ccccn2)s1)C(=O)NCC#N | 5.05% |

| SMILES | % Inhibition @ 10 uM |
| --- | --- |
| CN(C)Cc1c(O)ccc2c(=O)c(-c3ccc(Cl)cc3)coc12 | -4.11% |
| CCN(CC)C1CCS(=O)(=O)C1 (stereo not shown) | -0.239% |
| CC(C)(C)c1[nH]nc2c1C(c1ccc(Br)s1)C(C#N)=C(N)O2 (stereo not shown) | 1.58% |
| Cc1ccc(C2C3=C(O)CC(C)(C)CC3=Nc3ccccc3N2C(=O)Cc2ccccc2)o1 (stereo not shown) | 7.12% |
| CCOc1ccc(C(CN)CC(=O)O)cc1 (stereo not shown) | -7.7% |
| CCCOc1ccccc1C(=O)N(Cc1ccc(C)o1)C1CCS(=O)(=O)C1 (stereo not shown) | -6.5% |
| CCc1nn2c(=O)c(S(=O)(=O)NCCc3ccccc3)c(C)nc2s1 | -4.47% |
| CN(CCC#N)S(=O)(=O)c1ccc2ncc(C(=O)O)c(O)c2c1 | -3.35% |
| N#Cc1cc2c(=O)n3ccccc3nc2n(C2CCCCC2)c1=N | -1.47% |
| CN(C)c1nc2c(N)ncnc2n1C1OC(CO)C(O)C1O (stereo not shown) | -2.26% |
| O=C(O)c1ccccc1S(=O)(=O)CC(=O)N1CCCCC1 | -3.75% |
| CC(C)NCC(O)COCc1ccccc1 (stereo not shown) | -0.152% and -6.99% |
| COc1ccc(/C=C2\SC(N3CCc4ccccc4C3)=NC2=O)c(OC)c1 | -0.386% |
| CC1CCCC(C)N1CCCNc1ccc2nnc(-c3ccccc3)n2n1 (stereo not shown) | 3.45% |
| CCN1C(=O)NC(=O)/C(=C\c2cn(CC(=O)NCc3ccco3)c3ccccc23)C1=O | 2.17% |
| Cc1cccn2cc(-c3ccccc3)cc12 | -2.8% |
| Cc1ccccc1NCN1C(=O)C2C3C=CC(C3)C2C1=O (stereo not shown) | 5.12% |
| CO/C(O)=C1\C(C)=NC2=C(C(=O)CCC2)C1c1cccc2ccccc12 (stereo not shown) | -1.03% |
| OCCNCc1cccc(OCc2ccc(Cl)cc2)c1 | -6.02% |
| CC1=CC(C)(C)Nc2cc(CN(C)C)c(O)cc21 | 0.878% |
| CCN(CC)C(=O)NCc1noc2ccccc12 | 3.02% |
| Cc1ccc(C(=O)N2CCC3(CC2)N=C(c2ccccc2)C(=O)N3)cc1 | 4.91% |
| Cc1ccsc1CN1CCC(O)CC1 | -2.81% |
| CC[Si](C)(CC)CCCn1c(=O)c2c(nc(NC3CCCCC3)n2C)n(C)c1=O | -5.08% |
| CCOCCCNC(=O)CCN1N=C(c2ccccc2)CCC1=O | -5.43% |
